# The supplement of paper PMC10126150
# Sequences with one replicate were seen in a single cluster, so their values are uncertain.
# System: ATP
# Assay: switch fluorescence ratio, 500 uM ATP over buffer (Cy3 cluster intensity, sum of 5 cycles each) (fold (ratio)); higher = stronger signal-on switching upon ATP binding; sequences stand for … in TCGTCGGCAGCGTCAGATGTGTATAAGAGACAGTTTTTTTTTTTTTTTTTTTTTTTTT…TC
# Settings: aptamer strand: ATP DNA aptamer (quencher-CACCTGGGGGAGTATTGCGGAGGAAGG + anchor), 100 nM annealed; ATP concentration: 500 uM; one replicate
# Procedure, shortened: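 Five buffer/ATP imaging cycles were run on Cy3-labelled switching-strand clusters on a modified Illumina MiSeq flow-cell, with NaOH stripping and re-annealing between cycles. In each cycle, clusters annealed to 100 nM quencher-labelled ATP aptamer were imaged in selection buffer, then after 15 min with 500 uM ATP at 22 °C. Per cluster, the fluorescence ratio is summed target-cycle over summed buffer-cycle Cy3 intensity, averaged per switch-domain sequence. Only clusters within 100-1000 RFU were kept.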
# 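Note: ATP exposure 15 min at 22 °C before imaging.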
row,Sequence,switch fluorescence ratio
1,GTTTTCATAG,1.03
2,GTTTTCATTC,1.04
3,GTTTTCGCG,1.07
4,GTTTTCGGCA,0.95
5,GTTTTCTCGC,0.99
6,GTTTTGACTT,1.01
7,GTTTTGCCTT,0.963
8,GTTTTGGATT,1.01
9,GTTTTTGAGC,1.03
10,GTTTTTGTCC,1.02
11,TAAAACATCG,0.972
12,TAAAACTATT,1
13,TAAAAGCGAA,1.01
14,TAAAAGGTGG,0.964
15,TAAAAGTGT,0.952
16,TAAAAGTTAC,1.09
17,TAAAATAAGC,1.04
18,TAAAATACTC,1.21
19,TAAAATGAAC,0.951
20,TAAAATGACA,1.06
21,TAAAATGTAC,1.06
22,TAAAATGTGG,0.986
23,TAAACCGTTT,0.992
24,TAAACGCGGT,1.05
25,TAAACGGCAC,1.96
26,TAAACGTTCC,1.46

row,Sequence,switch fluorescence ratio
1,TAAACTTCA,1.22
2,TAAACTTTGG,1
3,TAAAGATGAC,1.07
4,TAAAGATGCG,0.997
5,TAAAGATGGG,0.974
6,TAAAGCATCA,0.947
7,TAAAGGTTTC,0.976
8,TAAATAAACT,0.998
9,TAAATACCAG,0.981
10,TAAATCACTC,1.31
11,TAAATCGTTT,0.994
12,TAAATGAGCG,0.965
13,TAAATGCTCA,1
14,TAAATGTAGC,1.01
15,TAAATGTGCC,1.03
16,TAAATGTTT,0.969
17,TAAATTAATG,0.95
18,TAAATTACGC,1.04
19,TAAATTACGT,1.43
20,TAAATTATAG,0.958
21,TAAATTCAAC,0.937
22,TAAATTTCA,0.942
23,TAAATTTGCC,1.07
24,TAACAAAGGA,1.01
25,TAACACATCA,0.992
26,TAACACTGCC,1.16

row,Sequence,switch fluorescence ratio
1,TAACACTTAG,1.07
2,TAACAGATTG,1
3,TAACATAATC,1.02
4,TAACATCCTC,1.07
5,TAACCACGTA,1.14
6,TAACCATTGT,0.971
7,TAACCCCTCT,1.03
8,TAACCCTGAG,1.03
9,TAACCGTTTT,1.02
10,TAACCTGCTC,1.67
11,TAACGAGCCG,1.11
12,TAACGGAAAT,1.28
13,TAACGTACTG,1.78
14,TAACGTCCCT,0.972
15,TAACGTCTGG,1.02
16,TAACGTGACG,1.04
17,TAACTATACA,1.19
18,TAACTTAATT,1.04
19,TAACTTACGA,1.32
20,TAACTTTATG,0.969
21,TAAGAAAACA,1.04
22,TAAGAAGGT,1
23,TAAGACACTT,1.04
24,TAAGACGGGT,0.967
25,TAAGACTCA,1.04
26,TAAGAGCACT,1.01

row,Sequence,switch fluorescence ratio
1,TAAGAGCGAC,1.03
2,TAAGAGCTCC,1.01
3,TAAGCAGCA,1.03
4,TAAGCCAGGG,1.07
5,TAAGCCGTGG,1.04
6,TAAGCCTCTC,1
7,TAAGCCTTCA,2.24
8,TAAGCGCTAT,1.02
9,TAAGCTTACT,1.21
10,TAAGGAGGAC,1.02
11,TAAGGCCAAC,1.04
12,TAAGGCCGGC,1.08
13,TAAGGCCTTT,0.972
14,TAAGGGATGC,1.02
15,TAAGGGGAG,0.976
16,TAAGGGTA,0.989
17,TAAGGTACTT,1.03
18,TAAGGTCGG,0.918
19,TAAGTATATG,0.995
20,TAAGTATGGA,0.996
21,TAAGTATTCA,1.09
22,TAAGTATTTG,1.01
23,TAAGTCGCT,0.973
24,TAAGTGTTGA,1.07
25,TAATAAACGT,1.05
26,TAATAGCGCT,0.984

row,Sequence,switch fluorescence ratio
1,TAATATAGCC,0.989
2,TAATATTCGC,1.05
3,TAATATTGTC,0.942
4,TAATCAATGA,1.03
5,TAATCATATC,0.953
6,TAATCGACGG,0.982
7,TAATCGAGCT,0.995
8,TAATCGGGC,1.04
9,TAATCGGGCT,0.985
10,TAATCGTTT,1
11,TAATGAGGTA,0.975
12,TAATGCCGAT,1.08
13,TAATGCGTGA,0.988
14,TAATGGTAAG,0.994
15,TAATGGTGG,0.991
16,TAATGTAACT,0.994
17,TAATGTGATA,1.01
18,TAATTATTAG,1.07
19,TAATTGGGCG,0.983
20,TAATTGGTGA,1.01
21,TAATTTATGT,0.953
22,TAATTTCACC,0.997
23,TAATTTCCG,1.04
24,TAATTTCTCG,0.972
25,TAATTTTACA,1.01
26,TACAAGGTGT,1.27

row,Sequence,switch fluorescence ratio
1,TACAATCAGT,1.03
2,TACAATGGG,1.01
3,TACAATTGTA,1.02
4,TACACAAGTT,0.996
5,TACACGGGTC,1.02
6,TACACGTATA,1.25
7,TACACTGCAT,1.56
8,TACACTTTTG,1.01
9,TACAGAGAG,0.986
10,TACAGAGGAG,1.03
11,TACAGGAAGT,1
12,TACAGGATTA,1.01
13,TACAGTATCG,1.01
14,TACAGTGACT,1.04
15,TACATAAGG,1.01
16,TACATCGTCA,0.981
17,TACATCTTAG,1
18,TACATGCCCG,1.13
19,TACATGGGAG,0.974
20,TACATGGGG,1.03
21,TACATTATGG,0.955
22,TACATTCAGT,1.05
23,TACATTGGG,0.974
24,TACATTGTGT,0.992
25,TACATTTACT,1.16
26,TACATTTGAA,0.997

row,Sequence,switch fluorescence ratio
1,TACCAACTAG,1.11
2,TACCACACCA,1.37
3,TACCAGCTCC,1.09
4,TACCATACG,1.43
5,TACCCAGAAT,1.03
6,TACCCATAAT,0.966
7,TACCCCGAGA,1.03
8,TACCCCTACG,1.42
9,TACCCGCATG,2.83
10,TACCCGTCGG,1.05
11,TACCCTACAA,1.28
12,TACCCTAGGC,1.1
13,TACCCTAGGG,0.957
14,TACCCTGAG,1.13
15,TACCGGTACC,1.07
16,TACCGTAAAG,1.12
17,TACCGTGACC,1.23
18,TACCGTGACT,1.13
19,TACCTAGGTT,1
20,TACCTCCAAA,1.36
21,TACCTCCAGT,1.07
22,TACCTCCTTT,0.993
23,TACCTTAGGG,1.05
24,TACCTTGGAA,1.06
25,TACGAAACAT,1.19
26,TACGAAGTTG,0.983

row,Sequence,switch fluorescence ratio
1,TACGACACTG,1.25
2,TACGACATCT,1.06
3,TACGACCGGG,1.02
4,TACGACTAGG,1
5,TACGACTCTT,1.07
6,TACGAGTGGC,0.929
7,TACGAGTTTG,1.03
8,TACGATCGCT,1.32
9,TACGCAACCC,2.85
10,TACGCGTCGA,1.04
11,TACGCTAAGC,1.28
12,TACGCTCCGA,1.05
13,TACGCTTG,0.998
14,TACGGAATG,1.16
15,TACGGCAGCA,1.13
16,TACGGCAGGA,1.08
17,TACGGCATAG,1.15
18,TACGGCC,1.08
19,TACGGCGAAA,1.01
